Results taken from the RNAGym collection of RNA variant scans (doi:10.1073/pnas.2313332121).
This sample is rich in variants without activity.

B1: TPR 5TU (parent)
chain: GGAUCUUCUCGAUCUAACAAAAAAGACAAAUCUGCCACAAAGCUUGAGAGCAUCUUCGGAUGCAGAGGCGGCAGCCUUCGGUGGCGCGAUAGCGCCAACGUUCUCAACUAUGACACGCAAAACGCGUGCUCCGUUGAAUGGAGUUUAUCAUG

Variants of: B1
Experiment: polymerase ribozyme fitness, log enrichment relative to wild type (log ratio); higher = more active; in vitro selection for triplet polymerase activity
Summary of the method: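 Each subunit of a heterodimeric triplet polymerase ribozyme was represented by a PCR-built, transcribed mutant library that underwent triplicate single-round in vitro selection with frozen incubation at −7 °C. Extended constructs were recovered by gel excision, streptavidin-bead capture and RT-PCR, and Illumina sequencing of input and output libraries kept genotypes with ≥10 input reads and ≥1 read per output. Fitness is the logarithm of genotype enrichment relative to wild-type enrichment, from inverse-variance-weighted replicate averages, with a logarithm base of 2.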

Variant	polymerase ribozyme fitness (log ratio)
GGAUCUUCUCGAUCUAACAAAAAAGACAAAUCUGCCACAAAGCUUGAGGGCAUCUUCGGAUGCAGAGGCGGCAGUCUUCGGUGGCGAGAUAGCGCCAACGUUCUCAACUAUGACACGCAAAACGCGUGCUCCGUUGAAUGGAGUUUAUCAUG [A49G C75U C87A]	≤ -4.2
GGAUCUUCUCGAUCUAACAAAAAAGACAAAUCUGCCACAAAGCUUGAGGGCAUCUUCGGAUGCAGAGGCGGCAGCAUUCGGUGGCGCGAUAGCGCCAACGUUCUCAACUAUGACGCUCAAAACGCGUGGUCCGUUCAAUGGAGUUUAUCAUG [A49G C76A A115G G117U C129G G136C]	≤ -4.2
GGAUCUUCUCGAUCUAACAAAAAAGACAAAUCUGCCACAAAGCUUGAGGGCAUCUUCGGAUGCAGAGGCGGCAGCUUUCGGUGGCGCGAUAGCGCGAGCGUUCUCAACUAUGACACGCAAAACGCGCGCUCCGUUGAAUGGAGUUUAUUAUA [A49G C76U C96G A98G U127C C149U G152A]	≤ -4.2
GGAUCUUCUCGAUCUAACAAAAAAGACAAAUCUGCCACAAAGCUUGAGGGCAUCUUCGGAUGCAGAGGCGGCAGCCUUAGGUGGCGGGAUAGCGCCAACGUUCUCAACUAUGACACGCAAAACGCGUGCUCCGUUGAAUGGAGUUUAUCAUG [A49G C79A C87G]	≤ -4.2
GGAUCUUCUCGAUCUAACAAAAAAGACAAAUCUGCCACAAAGCUUGAGGGCAUCUUCGGAUGCAGAGGCGGCAGCCUUGGGUGGCGCGAUAGCGCCAACGUUCUCAACUAUGACACGCAAAACGCGUGCUCCGUUGAAUGGAGUUUAUCAUG [A49G C79G]	≤ -4.2
GGAUCUUCUCGAUCUAACAAAAAAGACAAAUCUGCCACAAAGCUUGAGGGCAUCUUCGGAUGCAGAGGCGGCAGCCUUCGGUGGAGCGAUAGCGCCAACGUUCUCAACUAUGACGCGCAAAACGCGUGCUCCGUUGAAUUGAGUUUAUCGUG [A49G C85A A115G G140U A150G]	≤ -4.2
GGAUCUUCUCGAUCUAACAAAAAAGACAAAUCUGCCACAAAGCUUGAGGGCAUCUUCGGAUGCAGAGGCGGCAGCCUUCGGUGGGGCGAUAGCGCCAACGUUCUCAACGAUGACACGCAAAACGCGUGCUCCGUUGAAUGGAGUUUAUCAUG [A49G C85G U109G]	≤ -4.2
GGAUCUUCUCGAUCUAACAAAAAAGACAAAUCUGCCACAAAGCUUGAGGGCAUCUUCGGAUGCAGAGGCGGCAGCCUUCGGUGGUGCGAUACCUUCAACGUUCUCAACUAUGACACGCAAAACGCGUGCUCCGUUGAAUGGAGUUUAUCAUG [A49G C85U G92C G94U C95U]	≤ -4.2
GGAUCUUCUCGAUCUAACAAAAAAGACAAAUCUGCCACAAAGCUUGAGGGCAUCUUCGGAUGCAGAGGCGGCAGCCUUCGGUGGUGCGAUAGCGCCAACGUUCUCAACUAUGACACUCAAAACGCGUGCUCCGUCGAAUGGACUUUAUCAUG [A49G C85U G117U U135C G143C]	-4.06
GGAUCUUCUCGAUCUAACAAAAAAGACAAAUCUGCCACAAAGCUUGAGGGCAUCUUCGGAUGCAGAGGCGGCAGCCUUCGGUGGCGCGAUAGGGCCAACGUUCUCAACUAUGACACGCACAACGCGUGCUCCGUUGAAUGGAGUUUAUCAUG [A49G C93G A120C]	≤ -4.2
GGAUCUUCUCGAUCUAACAAAAAAGACAAAUCUGCCACAAAGCUUGAGGGCAUCUUCGGAUGCAGAGGCGGCAGCCUUCGGUGGCGCGAUAGCGCCAAGGUUCUCGACUAUGACAGGCAAAACGCGUGAUCCGUUGAUUGGAGUUUAGGAUG [A49G C99G A106G C116G C129A A138U U148G C149G]	≤ -4.2
GGAUCUUCUCGAUCUAACAAAAAAGACAAAUCUGCCACAAAGCUUGAGGACAUCUUCGGAUGCAGAGGCGGCAGCCUUCGGUGACGCGAUAGCGCCGACGUUCUCAACUAUGACACGCAAAACGCGUGCUCCGUUGAAUGGAGUUUAUCAUG [A49G G50A G84A A97G]	-3.11
GGAUCUUCUCGAUCUAACAAAAAAGACAAAUCUGCCACAAAGCUUGAGGUCAUCUUCGGAUGCAGAGGCGGCAGCCUUCGGUGGCGGGAUAGCGCCAACGUUCUCAACUAUGACACGCAAAACGCGUGCUCCGUUGAAUGGAGGUUAUCAUG [A49G G50U C87G U144G]	≤ -4.2
GGAUCUUCUCGAUCUAACAAAAAAGACAAAUCUGCCACAAAGCUUGAGGGCAUCUUCCGAUGCAGAGGCGGCAGCCUUCGGUGGCGCGAUAGCGCCAACGUUCUCAACUAUGACACGCAAAACGCGUGCUCCGUUGAAUGGAGUUUAUCAUG [A49G G58C]	-0.689
GGAUCUUCUCGAUCUAACAAAAAAGACAAAUCUGCCACAAAGCUUGAGGGCAUCUUCCGAUGCAGACGCGGCAGCCUUCGGUGGGGCGAUACCGCCAACGUUCUCAACUAUGACACGCAAAACGCGUGCUCCGUUGAAUGGAGUUUAUCAUG [A49G G58C G67C C85G G92C]	≤ -4.2
GGAUCUUCUCGAUCUAACAAAAAAGACAAAUCUGCCACAAAGCUUGAGGGCAUCUUCGGAUGCAAAGGCGGCAGCCUUCGGUGUCGCGAUAGCGCCAACGUUCCCAACUAUGAUACGCAAAACGCGUGCUCCGUUGAAUGGAGUUUAUCAUG [A49G G65A G84U U104C C114U]	≤ -4.2
GGAUCUUCUCGAUCUAACAAAAAAGACAAAUCUGCCACAAAGCUUGAGGGCAUCUUCGGAUGCAUACGCGGCAGCCUUCGGUGGCGCGAUAGCGCCAACGUUCUCAACUAUGACACGCAAAACACGUGCUCCGUUGAAUGGAGUUUAUCAUG [A49G G65U G67C G124A]	≤ -4.2
GGAUCUUCUCGAUCUAACAAAAAAGACAAAUCUGCCACAAAGCUUGAGGGCAUCUUCGGAUGCAGAGGCGACAGCCUUCGGUGGCGCGAUAGCGCCAACGUUCUCAGCUAUGACACGCAAAACGCGUGCUCCGUUGAAGGGUGUUUAUCAUG [A49G G71A A107G U139G A142U]	≤ -4.2
GGAUCUUCUCGAUCUAACAAAAAAGACAAAUCUGCCACAAAGCUUGAGGGCAUCUUCGGAUGCAGAGGCGGCAGCCUUCGAUGGCGGGAUAGCGCCAACGUUCGCAACUAUGACACGCAAAACGCGUGCUCCGUUGACUGGAGUUUAUCAUG [A49G G81A C87G U104G A138C]	≤ -4.2
